# From PMC4336329 (PLoS ONE, 2015)
# Out of some 310,000 compounds screened, about 14,000 (4.5%) showed an effect of 50% or more. Effects have a minus sign here. Some of the results follow.
# Biological target: human ether-à-go-go-related gene (hERG) potassium channel (human, UniProt Q12809)
# Assay: primary screen, population patch clamp on CHO cells stably expressing hERG
# 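Further: peak tail current of the secondary pulse compared with the same well before compound.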
# Sequence of human ether-à-go-go-related gene (hERG) potassium channel (Q12809 whole entry, looked up): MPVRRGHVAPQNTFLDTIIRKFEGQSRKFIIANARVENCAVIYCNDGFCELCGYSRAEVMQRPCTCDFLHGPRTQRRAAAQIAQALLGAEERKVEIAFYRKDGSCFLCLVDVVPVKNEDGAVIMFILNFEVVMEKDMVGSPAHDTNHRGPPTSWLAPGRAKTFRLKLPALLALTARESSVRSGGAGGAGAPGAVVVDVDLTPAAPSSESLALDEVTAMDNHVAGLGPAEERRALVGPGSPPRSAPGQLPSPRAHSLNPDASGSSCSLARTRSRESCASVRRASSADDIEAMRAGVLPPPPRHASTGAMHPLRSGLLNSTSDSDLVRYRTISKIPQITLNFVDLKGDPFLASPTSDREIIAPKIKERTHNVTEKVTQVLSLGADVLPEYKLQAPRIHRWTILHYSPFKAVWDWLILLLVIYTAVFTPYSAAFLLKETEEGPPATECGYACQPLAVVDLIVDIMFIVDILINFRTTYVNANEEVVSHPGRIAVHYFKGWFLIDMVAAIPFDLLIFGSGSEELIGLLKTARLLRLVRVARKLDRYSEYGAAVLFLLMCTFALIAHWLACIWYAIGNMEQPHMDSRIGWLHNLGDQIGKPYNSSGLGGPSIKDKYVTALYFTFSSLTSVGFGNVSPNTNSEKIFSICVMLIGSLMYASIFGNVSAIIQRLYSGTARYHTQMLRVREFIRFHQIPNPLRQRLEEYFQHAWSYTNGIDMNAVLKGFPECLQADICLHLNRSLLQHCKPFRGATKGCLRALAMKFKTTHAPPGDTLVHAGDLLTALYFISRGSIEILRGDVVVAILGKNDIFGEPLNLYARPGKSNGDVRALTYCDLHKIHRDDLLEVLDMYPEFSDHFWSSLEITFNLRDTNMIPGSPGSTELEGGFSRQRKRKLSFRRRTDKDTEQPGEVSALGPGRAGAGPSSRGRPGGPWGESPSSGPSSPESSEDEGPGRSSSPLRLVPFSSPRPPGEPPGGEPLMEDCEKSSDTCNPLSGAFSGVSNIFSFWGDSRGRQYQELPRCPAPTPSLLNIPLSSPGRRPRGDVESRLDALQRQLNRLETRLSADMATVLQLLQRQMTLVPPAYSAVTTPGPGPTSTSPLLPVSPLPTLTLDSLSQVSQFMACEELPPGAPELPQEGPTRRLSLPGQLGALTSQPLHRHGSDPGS
row,Structure (SMILES),"hERG current change (%, negative = inhibition) at 10uM"
1,O=C(CSc1nnc(CNc2ccc(Cl)cc2)n1Cc1ccccc1)NCc1ccco1,-15.6%
2,CN1CCN(C(=O)c2ccc(COc3cc(Cl)ccc3Cl)o2)CC1,-46.1%
3,COc1ccc2nc3ccccc3nc2c1NC(=O)c1ccc(Br)cc1,12%
4,COc1ccc(C(=O)NCCc2cc3ccc(C)c(C)c3[nH]c2=O)cc1OC,-23%
5,O=C(Cn1c2c(sc1=O)C1c3ccccc3OCC1CS2)Nc1ccc(Cl)c(Cl)c1 (stereo not drawn),5.07%
6,COc1ccccc1/C=C(/C(=O)NCCCn1ccnc1)c1ccccc1,-15.8%
7,COc1ccc(CN(CC(=O)NC2CCCC2)C(=O)CN2C(=O)COc3ccccc32)cc1,-37.9%
8,CCn1ccc(C(=O)Nc2ncc(C)s2)n1,3.3%
9,CCOC(=O)C1=C(O)C(=O)N(C2CCCCC2)C1,6.01%
10,COC(=O)c1ccc(NC(=O)C2CC3CCC2C3)cc1 (stereo not drawn),-6.77%
11,CCOC(=O)C1=C(N)OC2=C(C(=O)CCC2)C12C(=O)Nc1ccccc12 (stereo not drawn),-6.27%
12,CC(=O)Nc1ccc(S(=O)(=O)N2CCC(C(=O)O)CC2)cc1,6.74%
13,CN1C(=O)C(O)N=C(c2ccccc2)c2ccccc21 (stereo not drawn),5.26%
14,CC(Oc1ccc2c(-c3ccccc3)cc(=O)oc2c1)C(=O)N1CCC[C@@H]1C(N)=O (stereo partly drawn),1.14%
15,Clc1nc2ccccc2cc1-c1nnn(-c2ccccc2Br)n1,-2.47%
16,CSc1ccc(/C=N/NC(=O)CN2CCN(Cc3ccc(Cl)cc3)CC2)cc1,-35.1%
17,O=C(Oc1cccc(-n2cnnn2)c1)c1ccco1,6.57%
18,CCOC(=O)c1c(NC(=O)CSc2nnc(C)s2)sc2c1CCC(CC)C2 (stereo not drawn),6.07%
19,O=C(C[n+]1cccc(Br)c1)c1ccccc1.[Br-],11.7%
20,CCn1c(=O)c(=O)n(CC)c2cc(S(=O)(=O)N3CCc4ccccc43)ccc21,-28.9%
21,COc1ccc(-c2c(C#N)c(SCc3c(C)noc3C)nc3c2C(=O)CC(C)(C)C3)cc1,5.46%
22,Nc1nc(-c2ccc(Oc3ccccc3)cc2)c(CC(=O)O)s1,9.12%
23,COc1cc(/C=C2\SC(N)=NC2=O)cc(Br)c1O,7.66%

row,Structure (SMILES),"hERG current change (%, negative = inhibition) at 10uM"
1,C=CCn1c2[n+](c3ccccc3c1=O)CCCCC2.[I-],-3.03%
2,N=c1c(S(=O)(=O)c2ccccc2)cc2c(=O)n3ccccc3nc2n1CCCN1CCOCC1,-65.9%
3,Cc1ccc(C)c(N2CCN(C(=O)c3ccc(CS(=O)(=O)c4ccccc4C)o3)CC2)c1,-25.5%
4,Cc1nc2c(sc(=S)n2Cc2ccco2)c(=O)n1CC(=O)Nc1cc(F)ccc1F,13.2%
5,Cc1cc(C)nc(NC(=O)Cc2cccs2)n1,0.474%
6,CC1CCN(CCCCOc2ccc(Br)cc2)CC1,-69.4%
7,CCOC(=O)c1cnc2cc(C)nn2c1C,-7.37%
8,Cc1ccc(C(=O)Nc2cc3c(cc2N2CCCCC2)n(C)c(=O)n3C)cc1,11.8%
9,CCc1nc(Nc2ccncc2)c2oc3ccccc3c2n1.Cl,-58.5%
10,CCCc1cc(=O)[nH]c(SCC(=O)N(Cc2ccccc2)C(C)C)n1,26.8%
11,Cc1ccc(O)c(CC(C)C)n1,7.01%
12,COCCCNC(=O)c1ccc(CS(=O)(=O)c2ccccc2C)o1,7.74%
13,O=C(NCc1ccccc1)C1CCCN(S(=O)(=O)c2ccc(-n3cnnn3)cc2)C1 (stereo not drawn),2.94%
14,C=CCn1c(O)c(C(CC)=Nc2cccc(C(=O)O)c2)c(=O)[nH]c1=O,11.6%
15,CC1CCN(S(=O)(=O)c2ccc(C(=O)N3CCOCC3)cc2)CC1,5.78%
16,C/C(N)=C(/C#N)C(=O)COC(=O)c1cc2c(s1)CCC(C)C2 (stereo not drawn),9.17%
17,O=C(/C=C1\SC(=O)N(CC(=O)Nc2ccc(F)cc2)C1=O)Nc1ccc(Cl)cc1,10.8%
18,CCN1C(=O)CS/C1=N\c1nccs1,6.88%
19,Cc1cccc(NS(=O)(=O)c2ccc(C(=O)NCCCN3CCOCC3)cc2)c1C,-15.6%
20,CCCc1ccc(S(=O)(=O)N2CCN(Cc3ccco3)CC2)cc1,-38.6%
21,CN(C)C(=O)NC1CCCCCCCCCCC1,-5.65%
22,CCOCCCNC(=O)CS(=O)(=O)Cc1nc(-c2cccc(OC)c2)oc1C,-2.06%
